Values joined by “and” are separate entries in the source; they are usually repeats but may differ in a detail not shown here. Equal entries are not always repeated. Out of some 360,000 compounds screened, about 16,000 (4.4%) were called active. Inconclusive means that the source gave no clear call. Such entries were picked first, then a sample of the others. Calls follow the shape of the dose curve; as a rule, active = well fitted inhibition curve with a large enough effect; inconclusive = small, poorly fitted or top-dose-only effect; inactive = no such curve, though single readings can be large or run the other way. Where the call is inconclusive, the potency comes from a doubtful curve fit.
Molecular target: Bromodomain adjacent to zinc finger domain protein 2B (Homo sapiens) (UniProt Q9UIF8)
Experiment: qHTS Assay for Inhibitors of BAZ2B; also: nearly all actives have a fitted effect of over 60% in size
Conditions: AlphaScreen BAZ2B-H3K14Ac peptide displacement; activity change, negative = inhibition: at 114 µM (top of the series)
Method in brief: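 AlphaScreen luminescence quantifies BAZ2B engagement of H3K14Ac peptide; the protein and biotinylated peptide are both at 50 nM final, buffer PBS pH 7.4 with 0.01% Tween-20, all steps at room temperature.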
% is scaled to controls: 0 for no effect and ±100 for the full control effect; potency is read from the fitted curve at half-maximal effect; tags tell the direction and shape of the fitted curve.

Chain of UniProt Q9UIF8 (Q9UIF8 whole entry, looked up, the tested form may be a part): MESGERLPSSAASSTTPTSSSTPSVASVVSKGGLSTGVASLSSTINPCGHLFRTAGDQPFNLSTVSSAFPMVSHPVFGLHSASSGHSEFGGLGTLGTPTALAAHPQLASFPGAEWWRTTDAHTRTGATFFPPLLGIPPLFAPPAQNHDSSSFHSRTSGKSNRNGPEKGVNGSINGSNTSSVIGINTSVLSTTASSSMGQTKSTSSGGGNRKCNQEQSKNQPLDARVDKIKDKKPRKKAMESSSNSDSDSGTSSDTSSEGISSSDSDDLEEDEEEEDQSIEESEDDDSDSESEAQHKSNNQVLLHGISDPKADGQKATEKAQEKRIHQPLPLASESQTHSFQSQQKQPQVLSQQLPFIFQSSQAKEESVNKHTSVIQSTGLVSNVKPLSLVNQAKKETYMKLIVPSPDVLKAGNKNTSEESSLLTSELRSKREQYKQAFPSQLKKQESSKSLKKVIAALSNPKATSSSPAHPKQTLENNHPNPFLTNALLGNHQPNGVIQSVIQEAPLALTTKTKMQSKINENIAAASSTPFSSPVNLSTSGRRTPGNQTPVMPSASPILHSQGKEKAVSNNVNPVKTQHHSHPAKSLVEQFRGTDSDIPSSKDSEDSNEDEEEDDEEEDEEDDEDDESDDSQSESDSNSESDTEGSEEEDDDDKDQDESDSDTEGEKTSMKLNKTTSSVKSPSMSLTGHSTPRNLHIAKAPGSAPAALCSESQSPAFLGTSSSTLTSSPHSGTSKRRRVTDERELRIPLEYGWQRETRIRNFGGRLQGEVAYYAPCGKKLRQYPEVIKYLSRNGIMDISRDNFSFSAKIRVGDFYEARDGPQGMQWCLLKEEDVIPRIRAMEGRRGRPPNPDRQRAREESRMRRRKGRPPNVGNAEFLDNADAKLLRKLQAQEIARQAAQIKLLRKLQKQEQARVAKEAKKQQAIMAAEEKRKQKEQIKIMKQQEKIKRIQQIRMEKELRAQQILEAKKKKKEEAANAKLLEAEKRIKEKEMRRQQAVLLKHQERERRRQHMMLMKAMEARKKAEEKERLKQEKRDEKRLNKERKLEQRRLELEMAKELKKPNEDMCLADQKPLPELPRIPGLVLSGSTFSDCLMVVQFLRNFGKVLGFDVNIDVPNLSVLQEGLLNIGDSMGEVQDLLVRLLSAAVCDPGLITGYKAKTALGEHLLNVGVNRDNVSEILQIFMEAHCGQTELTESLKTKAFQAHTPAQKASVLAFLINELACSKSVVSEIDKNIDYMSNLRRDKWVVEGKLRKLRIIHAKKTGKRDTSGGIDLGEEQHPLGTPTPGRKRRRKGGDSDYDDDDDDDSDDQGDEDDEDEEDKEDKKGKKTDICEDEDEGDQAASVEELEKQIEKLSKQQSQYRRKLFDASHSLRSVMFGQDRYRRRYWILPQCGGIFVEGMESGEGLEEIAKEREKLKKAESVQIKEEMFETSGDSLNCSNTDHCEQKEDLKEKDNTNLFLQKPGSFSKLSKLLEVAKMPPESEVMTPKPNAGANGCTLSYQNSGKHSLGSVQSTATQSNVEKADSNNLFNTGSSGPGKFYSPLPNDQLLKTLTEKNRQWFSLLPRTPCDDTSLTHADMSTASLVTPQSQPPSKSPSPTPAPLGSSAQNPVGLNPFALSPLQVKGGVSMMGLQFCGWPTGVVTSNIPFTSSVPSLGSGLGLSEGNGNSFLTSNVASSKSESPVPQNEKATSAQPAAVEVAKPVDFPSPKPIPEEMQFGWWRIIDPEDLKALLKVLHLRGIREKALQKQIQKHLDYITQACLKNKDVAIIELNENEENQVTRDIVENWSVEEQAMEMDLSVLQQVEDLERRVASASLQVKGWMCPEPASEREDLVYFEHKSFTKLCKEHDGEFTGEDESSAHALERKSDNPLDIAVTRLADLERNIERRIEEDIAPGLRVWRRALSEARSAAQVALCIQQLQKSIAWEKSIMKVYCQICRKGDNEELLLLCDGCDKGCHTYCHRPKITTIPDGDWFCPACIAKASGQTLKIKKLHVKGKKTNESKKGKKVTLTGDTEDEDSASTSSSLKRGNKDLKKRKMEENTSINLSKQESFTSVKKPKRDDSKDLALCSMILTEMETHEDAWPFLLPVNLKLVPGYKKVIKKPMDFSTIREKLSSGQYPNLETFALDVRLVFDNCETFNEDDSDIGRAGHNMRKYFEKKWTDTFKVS

SMILES | Potency | activity change, negative = inhibition
COCCCNC(=O)c1ccc(N2CCCC2)c(NS(=O)(=O)c2ccc(C)cc2)c1 | inconclusive: 89.1 µM [inhibitor, single point] | –
CCCCCC(=O)N[C@@H](c1ccccc1)[C@@H](O)C(=O)O[C@H]1C[C@@]2(O)[C@@H](OC(=O)c3ccccc3)C3[C@](C)(C(=O)[C@H](OC(C)=O)C(=C1C)C2(C)C)[C@@H](O)C[C@H]1OC[C@@]31OC(C)=O (some centres undefined) | inconclusive: 79.4 µM [inhibitor, single point] | –
COC(=O)/C(C#N)=C/c1c(N2CCN(Cc3ccc4c(c3)OCO4)CC2)nc2c(C)cccn2c1=O | inconclusive: 12.6 µM [inhibitor, full curve, poor fit] | –
O=C(NCC1CCCO1)C(c1cccs1)N(Cc1cccs1)C(=O)c1ccc(-c2ccccc2)[nH]1 (centres undefined) | inconclusive: 39.8 µM [inhibitor, full curve, poor fit] | –
O=c1c2c3c(sc2nc(NCCO)n1CCc1ccccc1)CCCCC3 | inconclusive: 50.1 µM [inhibitor, partial curve] | –
Nc1cc(C(=O)O)ccc1N1CCCCC1 | inconclusive: 79.4 µM [inhibitor, single point] | –
CCC(C)NCCCOc1ccc(Cl)cc1C(C)(C)C (centres undefined) | active: 50.1 µM | –
CC(C)CCn1nnnc1C(c1ccc(F)cc1)N1CCN(C(=O)c2ccco2)CC1 (centres undefined) | – | inactive: -35.5%
O=C(Cc1cccs1)Nc1ccc(F)cc1F | inconclusive: 20 µM [inhibitor, full curve, poor fit] | –
CCN(Cc1nc(-c2ccc(OC)cc2)oc1C)S(=O)(=O)c1ccc(Cl)cc1 | inconclusive: 11.2 µM [inhibitor, full curve] | –
Cc1ccc2nc(CSc3nnc(-c4ccco4)o3)cc(=O)n2c1 | active: 56.2 µM | –
Cc1c(Cl)cccc1NC(=O)Cc1ccc([N+](=O)[O-])cc1 | inconclusive: 50.1 µM [inhibitor, partial curve] | –
Cc1nn(C(C)C(=O)NNC(=S)Nc2ccc(Cl)cc2)c(C)c1[N+](=O)[O-] (centres undefined) | – | inactive: -4.62%
O=C(CSc1ncn[nH]1)NNC(=O)c1ccccc1 | – | inactive: 4.55%
O=Cc1[nH]c2ccccc2c1N(C(=O)CCl)c1ccc([N+](=O)[O-])cc1 | inconclusive: 79.4 µM [inhibitor, single point] | –
CCOP(=O)(OCC)C(NC(=O)c1ccc(OC)cc1)c1ccccc1 (centres undefined) | – | inactive: 4.42%
COc1cc(/C=N/Nc2nc3ccccc3s2)ccc1O | inconclusive: 79.4 µM [inhibitor, single point] | –
COc1ccc(CNC(=O)Cn2nc([N+](=O)[O-])c(Br)c2C)cc1 | inconclusive: 89.1 µM [inhibitor, single point] | –
CCc1nn(CC(=O)NCCCN2CCOCC2)c(=O)c2cc3cc(F)ccc3n12 | – | inactive: -11.2% [at 57.1 µM]
Nc1ccc(Oc2ccc3nc(-c4ccccc4)c(-c4ccccc4)nc3c2)cc1 | inconclusive: 35.5 µM [inhibitor, full curve] | –
C(=Nc1ccc(N2CCOCC2)cc1)c1c[nH]c2ccccc12 | inconclusive: 50.1 µM [inhibitor, partial curve] | –
COc1ccc(OC)c(S(=O)(=O)N2CCN(c3ccc(F)cc3)CC2)c1 | – | inactive: -28.8%
O=C(Nc1ccc(F)c([N+](=O)[O-])c1)C(=O)c1c(O)[nH]c2ccccc12 | inconclusive: 70.8 µM [inhibitor, single point] | –

SMILES | Potency | activity change, negative = inhibition
Cc1cccc(C)c1NC(=O)CCc1nnc2ccc(N3CCCC3)nn12 | – | inactive: -18%
CN1CCN(C(=O)c2ccc3c(c2)N(Cc2ccccc2)CCS3)CC1 | – | inactive: -35.5%
COc1ccc(NCc2nc3ccccc3n2CCOc2ccc(C)cc2)cc1 | active: 11.2 µM and active: 10 µM | –
COc1ccc(C(=O)/C=C/C(=O)N(Cc2ccc3c(c2)OCO3)C(C(=O)NC2CCCCC2)c2ccncc2)c(O)c1 (centres undefined) | inconclusive: 79.4 µM [inhibitor, single point] | –
O=C(NN1C(=O)c2ccc3c4c(ccc(c24)C1=O)CC3)c1ccc(Br)cc1 | inconclusive: 100 µM [inhibitor, single point] | –
Cn1c(=O)n(Cc2ccccc2)c(=O)c2c1nc(NCC1CCCO1)n2Cc1ccccc1 (centres undefined) | inconclusive: 10 µM [inhibitor, full curve] | –
O=C(Nc1cccc(-c2cccc(F)c2)c1)C1CCN(Cc2ccco2)CC1 | inconclusive: 79.4 µM [inhibitor, single point] | –
O=C(OCc1ccco1)c1ccc(S(=O)(=O)N2CCCCC2)cc1 | active: 50.1 µM | –
CCOc1[nH]n(-c2ccccc2)c(=O)c1C=Nc1ccc(Cl)cc1 | inconclusive: 5.62 µM [inhibitor, full curve, poor fit] | –
Cc1ccccc1NC(=O)c1ccc2nc(N3CCOCC3)sc2c1 | – | inactive: -34.2%
COc1ccc(-c2sc(Nc3ccccc3)n[n+]2-c2ccc(F)cc2)c(C)c1C | inconclusive: 25.1 µM [inhibitor, full curve] | –
Cc1[nH]c(-c2ccco2)nc1C(=O)O | inconclusive: 89.1 µM [inhibitor, single point] | –
O=C(Nc1oc2ccccc2c(=O)c1-c1ccc(Cl)cc1)c1ccco1 | – | inactive: -21.2%
Cc1ccccc1CSc1nnc(-c2ccco2)n1Cc1ccco1 | active: 50.1 µM | –
O=C(N/N=C/c1ccoc1)c1ccccc1 | active: 56.2 µM | –
CCOc1ccc(NS(=O)(=O)c2ccc3c(c2)N(C(C)=O)CCO3)cc1 | inconclusive: 79.4 µM [inhibitor, single point] | –
COc1ccc(S(=O)(=O)N(C(=O)c2ccco2)c2cc3sc(=O)oc3c3ccccc23)cc1 | inconclusive: 44.7 µM [inhibitor, partial curve] | –
CCN1CCN(C(=O)c2ccccc2N(Cc2ccccc2)S(=O)(=O)c2ccc(C)cc2)CC1 | inconclusive: 89.1 µM [inhibitor, single point] | –
COc1ccc(-c2nc(CSCC(=O)NCc3ccco3)c(C)o2)cc1 | inconclusive: 79.4 µM [inhibitor, single point] | –
COc1ccc(S(=O)(=O)Nc2c(C(=O)O)[nH]c3ccc(OC)cc23)cc1 | inconclusive: 50.1 µM [inhibitor, partial curve] | –
COc1ccc(-c2ccc(NS(=O)(=O)c3ccc([N+](=O)[O-])cc3)cc2)nn1 | inconclusive: 70.8 µM [inhibitor, single point] | –
Clc1ccc(C2=C3CCCCn4c(-c5ccccc5)c[n+](c43)C2)cc1 | active: 50.1 µM | –
Cc1ccc(NC(=O)CN(C)CC(=O)Nc2cccc(F)c2)cc1S(=O)(=O)N1CCCCCC1 | active: 50.1 µM | –

SMILES | Potency | activity change, negative = inhibition
Cc1cc(C(=O)CSc2ncccn2)c(C)n1-c1cccc(F)c1 | – | inactive: -39%
COc1ccc(CCN(C)C(=O)c2cc(-c3ccccc3)nc3ccccc23)cc1OC | inconclusive: 50.1 µM [inhibitor, partial curve] | –
Cc1ccc(S(=O)(=O)N2C=CC(C(F)(F)F)=NCC2)cc1 | inconclusive: 8.91 µM [inhibitor, single point] | –
COc1ccccc1Nc1nc2ccc(C)cc2n2cnnc12 | – | inactive: 3.82%
CCCOc1ccccc1C1CC(=O)Nc2cc3c(cc21)OCCO3 (centres undefined) | inconclusive: 79.4 µM [inhibitor, single point] | –
O=[N+]([O-])c1ccccc1N/N=C\c1ccccc1F | inconclusive: 50.1 µM [inhibitor, partial curve] | –
Cn1ccnc1Sc1nc2ccccc2nc1NS(=O)(=O)c1ccccc1 | inconclusive: 79.4 µM [inhibitor, partial curve] | –
Cc1ccc(C)c(CN2C(=O)c3ccccc3S(=O)(=O)c3ccc(C(=O)N4CCN(C)CC4)cc32)c1 | active: 89.1 µM | –
CCOc1ccccc1CN1CCC(n2nccc2NC(=O)C2CCCC2)CC1 | inconclusive: 100 µM [inhibitor, single point] | –
COc1ccc(Cl)cc1NC(=O)Nc1ccc(C(=O)N2CCCC2)cc1 | inconclusive: 79.4 µM [inhibitor, single point] | –
CN(C/C=C/c1ccccc1)C1CCCCC1 | – | inactive: -18.4%
CC(C)COc1ccc(S(=O)(=O)NNC(=O)c2cc3ccccc3o2)cc1 | inconclusive: 89.1 µM [inhibitor, single point] | –
CCOC1=C/C(=C/c2c(N)n3nc(CC(=O)N4CCCC4)sc3nc2=O)C=CC1=O | – | inactive: -21.3% [at 57.1 µM]
Cc1cc(N(C)C)ccc1N=Nc1ccc2ncccc2c1 | active: 3.16 µM | –
O=C(CCn1cnc(-c2ccccc2)c1-c1ccccc1)N/N=C/c1ccccc1O | inconclusive: 39.8 µM [inhibitor, full curve] | –
CCCN(C(=O)Cn1c(=O)oc2cc(Cl)ccc21)c1ccc(C(C)C)cc1 | – | inactive: -12.5%
COc1ccccc1-n1c(CNC(=O)c2ccc(S(=O)(=O)N3CCOCC3)cc2)n[nH]c1=S | inconclusive: 3.55 µM [inhibitor, full curve] | –
Oc1ccccc1Oc1c(F)c(F)nc(N2CCCC2)c1F | inconclusive: 79.4 µM [inhibitor, single point] | –
CCOc1ccc(/C=N/n2cc(-c3ccccc3)[nH]c2=S)cc1 | – | inactive: -19.3%
Cn1cc(NC(=O)c2cc(NC(=O)c3cc(NC=O)cn3C)cn2C)cc1C(=O)NCCC(=N)N | inconclusive: 89.1 µM [inhibitor, single point] | –
CCN(CC)S(=O)(=O)c1ccc2nc(NC(=O)c3ccc(Br)o3)sc2c1 | – | inactive: -1.43%
COc1ccc(OC)c(-c2csc(NC(=O)Cc3ccccc3F)n2)c1 | inconclusive: 79.4 µM [inhibitor, partial curve] | –
CCN(CC)c1ccc(C(=O)N2CCC(c3ccncc3)CC2)cc1 | inconclusive: 39.8 µM [inhibitor, partial curve] | –
